Results published in the antibiotic and cytotoxicity screens of Wong et al. (2023).
Some of the results follow.

How the values were obtained:
HSkMC = human skeletal muscle cells; assay: cytotoxicity call (relative viability < 0.9); conditions: 10 µM
HepG2 = assay: cytotoxicity call (relative viability < 0.9); conditions: 10 µM
S. aureus RN4220 = assay: growth inhibition call (relative growth <= 0.2); conditions: 50 µM

Structure (SMILES)	cytotoxicity call (HSkMC)	cytotoxicity call (HepG2)	growth inhibition call (S. aureus RN4220)
O=C(C[C@H]1CC[C@@H](NC(=O)CN2CCOCC2)[C@@H](CO)O1)NC1CCC1	inactive	inactive	inactive
COc1ccccc1C#Cc1ccc2c(c1)O[C@H](CN(C)Cc1cccnc1)[C@H](C)CN([C@@H](C)CO)S2(=O)=O	inactive	inactive	inactive
Cc1ccc(S(=O)(=O)N(C)C[C@@H]2Oc3c(NC(=O)c4ccncc4)cccc3C(=O)N([C@H](C)CO)C[C@@H]2C)cc1	inactive	inactive	inactive
COc1ccc(O)c(N)c1	inactive	active	inactive
C[C@@H]1CN([C@@H](C)CO)C(=O)c2cccc(NC(=O)c3ccc(-c4nccs4)cc3)c2O[C@@H]1CN(C)S(=O)(=O)c1cn(C)cn1	inactive	inactive	inactive
C[C@H](CO)N1C[C@H](C)[C@@H](CN(C)C(=O)CN2CCOCC2)Oc2ncc(C#C[C@@H](C)O)cc2C1=O	inactive	inactive	inactive
Nc1ccn([C@@H]2O[C@H](CO)[C@@H](O)[C@H]2O)c(=S)n1	inactive	inactive	inactive
Cc1cc2cc(C)nn2c(N)n1	inactive	inactive	inactive
Cc1ccc(S(=O)(=O)Nc2cccc3c2O[C@@H](CN(C)S(=O)(=O)c2cccs2)[C@@H](C)CN([C@H](C)CO)C3=O)cc1	inactive	inactive	inactive
CC(=O)c1ccn[nH]1	inactive	inactive	inactive
C[C@H](CO)N1C[C@H](C)[C@@H](CN(C)C(=O)Nc2ccc(C(F)(F)F)cc2)OCCCC[C@H](C)Oc2ccc(NS(=O)(=O)c3ccc(Cl)cc3)cc2C1=O	inactive	active	inactive
N[C@H](C(=O)O)c1ccc(O)c(C(=O)O)c1	inactive	inactive	inactive
Cc1noc(C)c1S(=O)(=O)N(C)C[C@H]1OCCCC[C@@H](C)Oc2ccc(NC(=O)Nc3ccc(C(F)(F)F)cc3)cc2C(=O)N([C@@H](C)CO)C[C@@H]1C	inactive	inactive	inactive
COc1ccc(S(=O)(=O)Nc2ccc3c(c2)CC(=O)N([C@H](C)CO)C[C@@H](C)[C@H](CN(C)S(=O)(=O)c2ccc(F)cc2)O3)cc1	inactive	inactive	inactive
C[C@@H]1CCCCO[C@@H](CN(C)Cc2ccc(Cl)c(Cl)c2)[C@@H](C)CN([C@@H](C)CO)C(=O)c2cc(NS(C)(=O)=O)ccc2O1	inactive	inactive	inactive
CC(=O)N[C@H]1[C@H](O[C@H]2CC[C@]3(C)[C@H]4CC=C5[C@@H]6CC(C)(C)CC[C@]6(C(=O)O[C@H]6OC[C@@H](O)[C@@H](O)[C@@H]6O)[C@@H](O)C[C@@]5(C)[C@]4(C)CC[C@H]3C2(C)C)O[C@H](CO[C@H]2OC[C@@H](O)[C@@H](O[C@H]3OC[C@@H](O)[C@@H](O)[C@@H]3O)[C@@H]2O)[C@@H](O[C@@H]2O[C@@H](C)[C@H](O)[C@@H](O)[C@H]2O[C@@H]2O[C@@H](C)[C@H](O)[C@@H](O)[C@H]2O)[C@@H]1O	inactive	active	inactive
C[C@@H]1CCCCO[C@H](CN(C)C(=O)C2CCCCC2)[C@@H](C)CN([C@H](C)CO)C(=O)c2cc(NS(=O)(=O)c3cccs3)ccc2O1	inactive	inactive	inactive
COc1ccc(S(=O)(=O)Nc2ccc3c(c2)CC(=O)N([C@@H](C)CO)C[C@@H](C)[C@@H](CN(C)C(=O)NC(C)C)O3)cc1	inactive	inactive	inactive
COC(=O)C[C@H]1CC[C@@H]2[C@H](COC[C@H](O)CN2S(=O)(=O)c2ccccc2C)O1	inactive	inactive	inactive
C[C@@H]1CN([C@H](C)CO)C(=O)c2cccc(NC(=O)c3ccncc3)c2O[C@@H]1CN(C)Cc1ccc(Oc2ccccc2)cc1	inactive	inactive	inactive
C[C@H]1CCCCO[C@H](CN(C)Cc2ccncc2)[C@@H](C)CN([C@@H](C)CO)C(=O)c2cc(NC(=O)Nc3ccc(F)cc3)ccc2O1	inactive	inactive	inactive
Cn1cnc(S(=O)(=O)N2C[C@H](O)COC[C@@H]3O[C@H](CC(=O)N4CCN(c5ccccc5)CC4)CC[C@H]32)c1	inactive	inactive	inactive
O=C(O)C12C3CCC4C5C3C1C5(C(=O)O)C42 (stereo unspecified)	inactive	inactive	inactive
CCS(=O)(=O)N1C[C@]2(CN(Cc3cc(ccc3F)F)[C@H](CO)c3c2c2ccc(cc2n3C)OC)C1	inactive	inactive	inactive
COc1ccc(S(=O)(=O)N(C)C[C@@H]2Oc3ccc(NC(=O)CCCN(C)C)cc3C(=O)N([C@@H](C)CO)C[C@@H]2C)cc1	inactive	inactive	inactive
C[C@H](CO)N1C[C@H](C)[C@H](CN(C)CC2CCCCC2)OCCCC[C@H](C)Oc2ccc(NC(=O)Cc3ccccc3)cc2C1=O	inactive	inactive	inactive
Cc1noc(C)c1S(=O)(=O)Nc1cccc2c1O[C@H](CN(C)C(=O)NC(C)C)[C@H](C)CN([C@@H](C)CO)C2=O	inactive	inactive	inactive
